# Assay results: PubChem BioAssay AID686978 (National Center for Advancing Translational Sciences (NCATS), 2013)
# “And” between values parts separate entries of the source, which are not always exact repeats. Equal entries are not always repeated. Among all 420,000 compounds or so, about 64,000 (15%) were called active. This list was built around the results that the source calls inconclusive (neither active nor inactive); the mix of calls is not that of the screen. Calls come from the whole dose curve; as a rule, active = well fitted inhibition curve with a large enough effect; inconclusive = small, poorly fitted or top-dose-only effect; inactive = flat fitted curve, though single readings scatter. No potency is given beside an inconclusive call; the fits are too rough.
# Assay: qHTS for Inhibitors of human tyrosyl-DNA phosphodiesterase 1 (TDP1): qHTS in cells in absence of CPT; note: nearly all actives have a fitted effect of over 55% in size
# Settings: DT40 Tdp1-/- hTDP1 cells, no CPT, ATP luminescence, 48 h; activity change, negative = growth inhibition: at 46.2 µM (top of the series) unless noted
# How it was run: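 Growth of hTDP1-complemented DT40 Tdp1-knockout cells is measured by ATP luminescence after at least 48 hr compound exposure at 37 °C, with DMSO substituting for the 20 nM CPT used in the parallel screen.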
# % is set by controls: 0 for no effect and ±100 for the full control effect; potency is the fitted concentration of half-maximal effect; tags give direction and shape of the fitted curve.
Structure (SMILES),Potency,"activity change, negative = growth inhibition"
CC(=O)c1c(C(C)=O)c(C)n(-c2nc(-c3ccccc3)c(C)s2)c1C,active: 13 µM,
CCOC(=O)Cc1c(C)c2c(C)[nH]nc2oc1=O,,inactive: -9.95%
O=C(Nc1nnc(CC2=CCCCC2)s1)Nc1ccccc1F,"inconclusive [inhibitor, single point]",
COc1ccccc1N1CCN(c2ncnc3c2nnn3C)CC1,"inconclusive [inhibitor, partial curve]",
Cc1ccc(S(=O)(=O)N2CCCCC2)cc1NC(=O)CSc1ccc2c(c1)OCCO2,"inconclusive [inhibitor, single point]",
COc1ccc(NC(=O)C2CCN(S(=O)(=O)c3cccc(-c4noc(C)n4)c3)CC2)cc1OC,active: 20.6 µM,
CCNc1ncc2ncc(=O)n(C3CC3)c2n1,,inactive: -7.68%
Cc1cccc(CN2[C@H](COCc3ccccc3)C=CS2(=O)=O)c1,"inconclusive [inhibitor, single point]",
CCOC(=O)c1oc2ccc(S(=O)(=O)n3nc(-c4ccc(C)cc4)cc3N)cc2c1C,active: 11.6 µM and active: 16.4 µM,
CC(C)c1cccc(C(C)C)c1OC(=O)NC(=O)c1c(F)cccc1F,,inactive: -25.4%
CCCCCOc1ccc(/C(C)=N/NC2=NCCN2)cc1,"inconclusive [inhibitor, single point]",
Cc1cc(F)ccc1NC(=O)c1cc(S(=O)(=O)N2CCc3ccccc32)cn1C,active: 25.9 µM,
CC(OC(=O)c1ccncc1)C(=O)Nc1cc(S(=O)(=O)N2CCCCC2)ccc1Cl (stereo unspecified),,inconclusive: -31.2% [inhibitor]
CCOCCCNC(=O)CN1CCN(c2ccc(F)cc2)CC1,,inactive: 1.41%
CCCCn1nc2cc(C(=O)NCc3ccccc3)ccc2c1OCC,"inconclusive [inhibitor, single point]",
CC(C)c1ccc(S(=O)(=O)N2CCC(n3c(C(F)(F)F)nc4cccnc43)CC2)cc1,"inconclusive [inhibitor, partial curve, poor fit]",
CC(C)c1ccc(CN(C(=O)c2cc3ccccc3oc2=O)C2CCS(=O)(=O)C2)cc1 (stereo unspecified),"inconclusive [inhibitor, single point]",
COc1cccc(C(=O)N2CCC[C@H]2C(=O)N2CCC[C@H]2C(=O)NCc2ccc(F)cc2F)c1,"inconclusive [inhibitor, single point]",
O=C(OC1CCOC1=O)c1cc(Cl)ccc1[N+](=O)[O-] (stereo unspecified),,inactive: 5.48%
CCCN(Cc1ccccc1)C(=S)Nc1cccc(C(F)(F)F)c1,"inconclusive [inhibitor, single point]",
c1ccc2c(c1)CCOC2CNCCCN1CCCCC1 (stereo unspecified),"inconclusive [inhibitor, single point]",
CCOC(=O)N1CCC(Nc2c(-c3ccc(C)cc3)c(=O)c2=O)CC1,"inconclusive [inhibitor, single point]",
COc1ccc(CN2CCN(C(C)C(=O)N(C)Cc3cccc(F)c3)CC2)cc1OC (stereo unspecified),"inconclusive [inhibitor, single point]",
COC(=O)/C=C1\OC(c2ccccc2)c2ccccc21 (stereo unspecified),"inconclusive [inhibitor, single point]",

Structure (SMILES),Potency,"activity change, negative = growth inhibition"
O=C(NC1CCCCC1)C1CC(=O)N(c2cccc([N+](=O)[O-])c2)C1 (stereo unspecified),"inconclusive [inhibitor, partial curve]",
COC(=O)c1cc(S(=O)(=O)N2CCN(c3ccc([N+](=O)[O-])cc3)CC2)c[nH]1,"inconclusive [inhibitor, partial curve]",
CCOC(=O)c1ccc(NC(=O)CC2COc3ccccc3O2)cc1 (stereo unspecified),active: 1.03 µM,
COc1ccc(C2NC(=O)N(C)C3=C2C(=O)N(c2ccc(Br)cc2)C3)cc1 (stereo unspecified),"inconclusive [inhibitor, single point]",
CCN1C(=O)c2ccc(C(=O)Nc3nccs3)cc2C1=O,,inactive: -2.24%
CC(=O)OC1C=C[C@]2(C)C(CC(OC(C)=O)[C@@]3(C)C4=CC(=O)OC(c5ccoc5)[C@]4(C)CCC23)C1(C)C (stereo partly specified),active: 20.6 µM,
CC(=O)c1ccc(OCCCC(=O)Nc2cc(S(=O)(=O)N3CCCCC3)ccc2C)cc1,active: 23.1 µM,
Cc1cc(NC(=O)c2ccco2)ccc1NC(=O)c1ccco1,"inconclusive [inhibitor, single point]",
CCc1ccc(-n2cc(-c3ccc([N+](=O)[O-])cc3)[nH]c2=S)cc1,,inactive: -4.81%
C=CCCC(=O)N1CCCC(Cc2cccc(Cl)c2)(C(=O)OCC)C1 (stereo unspecified),"inconclusive [inhibitor, single point]",
CCCCc1nnc(NC(=O)CS(=O)(=O)Cc2ccccc2)s1,,inactive: -15.5%
CCCCN1/C(=C/c2ccc3ccccc3[n+]2CC)Sc2ccccc21,active: 0.231 µM,
Cc1c(CCNC=O)cc(C)c2c3c(oc12)CCCC3,"inconclusive [inhibitor, single point]",
COC(=O)c1cc2occc2n1Cc1nc(-c2ccccc2)oc1C,"inconclusive [inhibitor, single point]",
O=C(Nc1ccc(-c2cn3ccsc3n2)cc1)c1ccc(F)c(S(=O)(=O)N2CCOCC2)c1,active: 23.1 µM,
CC(=O)NCCc1ccc(C(=O)COC(=O)c2cccn2C)cc1,,inactive: -18.5%
CN1CCc2cc(O)c(O)cc2C(c2ccccc2)C1 (stereo unspecified),"inconclusive [inhibitor, single point]",
Cc1ccc(-c2nc(CS(=O)CC(=O)NCc3ccc(Cl)cc3)c(C)o2)cc1 (stereo unspecified),"inconclusive [inhibitor, single point]",
O=C(C1=C[C@@H](c2ccc(C(F)(F)F)cc2)C[C@@H](OCc2ccc(CO)cc2)O1)N1CCOCC1,"inconclusive [inhibitor, single point]",
CC(=O)C1=C(O)C(=O)N(CCNCCO)C1c1ccccc1 (stereo unspecified),,inactive: -3.06%
CN(C)c1ccc(CNC(=O)C2CCN(c3nc4ccccc4[nH]3)CC2)cc1,"inconclusive [inhibitor, single point]",
COc1cc(/C=C2\SC(=Nc3c(C)n(C)n(-c4ccccc4)c3=O)NC2=O)ccc1O,"inconclusive [inhibitor, single point]",
COC(=O)c1sc(NC(=O)c2cc(C)on2)nc1C,,inactive: 19.7%
Cc1ccc(C2OC34CCCCCC3C(C#N)(C(=N)O4)C2(C#N)C#N)cc1 (stereo unspecified),"inconclusive [inhibitor, partial curve]",

Structure (SMILES),Potency,"activity change, negative = growth inhibition"
CCCc1nn2c(=O)cc(COC(=O)c3ccc(NC(=O)COc4ccc(F)cc4)cc3)nc2s1,,inactive: -22.2%
Cc1cc(S(=O)(=O)N2CCN(Cc3noc(CCC(=O)N4CCCCC4)n3)CC2)ccc1F,"inconclusive [inhibitor, single point]",
COc1cccc(NC(=O)COC(=O)c2cc(S(=O)(=O)N3CCOCC3)ccc2C)c1,,inactive: -16.6%
COc1ccccc1/C=C/C(=O)NCC(=O)N/N=C(/C)c1ccc(Cl)cc1,"inconclusive [inhibitor, single point]",
COC(=O)[C@@H](c1ccccc1Cl)N1CCc2sccc2C1,"inconclusive [inhibitor, single point]",
COc1ccc(CNC(=O)c2ccc(Cl)c(NC3=NC4CS(=O)(=O)CC4S3)c2)cc1 (stereo unspecified),"inconclusive [inhibitor, single point]",
COc1cc2nc(NCCCN3CCN(C)CC3)n3nc(-c4ccccc4)nc3c2cc1OC,"inconclusive [inhibitor, single point]",
Cc1cccc(NC(=O)Cn2cc(C(=O)C3CCCCC3)c3ccccc32)c1,"inconclusive [inhibitor, single point]",
O=C(Cc1ccc(Cl)cc1)N/N=C/c1c(Cl)cccc1Cl,"inconclusive [inhibitor, single point]",
Cc1ccc(OC(C)C(=O)N2CCc3ccccc32)c([N+](=O)[O-])n1 (stereo unspecified),,inactive: -2.21%
CCCCCCCC(=O)NNC(=O)Cc1ccccc1,,inactive: -1.62%
CCOC(=O)[C@H]1[C@H]2COc3ccc(Br)cc3[C@@H]2N2C(=O)CN(Cc3ccc(F)cc3)C(=O)[C@@]12C,active: 20.6 µM,
CC1(C)Cc2c(sc(NC(=O)c3ccc(C(=O)c4ccccc4)cc3)c2C(N)=O)C(C)(C)N1,"inconclusive [inhibitor, single point]",
CC(CC(F)(F)F)N1CCC(n2nccc2NC(=O)CCCc2ccccc2)CC1 (stereo unspecified),"inconclusive [inhibitor, partial curve]",
CCc1cc(C(=O)N2CCN(c3ncccn3)CC2)sc1C,,inactive: -20.5%
CC(C)(C)c1ccc(-c2nc(C#N)c(NCCCn3ccnc3)o2)cc1,"inconclusive [inhibitor, single point]",
O=C1N/C(=C/c2ccsc2)C(=O)N1c1ccccc1,,inactive: 13.1%
CCOc1ccc2[nH]c(O)c(NC(C)=O)c2c1,,inactive: 5.95%
CSc1ccc(CCNC(=O)NCc2noc3ccccc23)cc1,"inconclusive [inhibitor, single point]",
COc1cccc(CNC(=O)c2cnc3sc(N4CCCC4)nn3c2=O)c1OC,,inactive: -14.7%
CCOC(=O)COc1ccc(C2C(C(=O)OC)=C(C)NC3=C2C(=O)c2ccccc23)cc1Cl (stereo unspecified),"inconclusive [inhibitor, single point]",
COc1ccc(C(=O)NC2CC2)cc1OC1CCN(C(C)CSC)CC1 (stereo unspecified),,inactive: 25.6%
CC(C)NC(=S)N/N=C1\CCCCc2ccccc21,active: 20.6 µM,
